{"source": "paper PMC6212790", "note": "This is one part of the list. At the low end of the ranking the order means little.", "data": [{"target": "T1, GST-Rok-C97-191 (UniProt O34857)", "T1 sequence": "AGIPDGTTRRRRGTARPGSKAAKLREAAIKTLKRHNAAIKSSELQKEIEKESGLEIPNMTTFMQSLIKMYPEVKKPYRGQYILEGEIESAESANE", "assay": "protein binding microarray;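 note: rank score from −0.5 (least bound) to 0.5 (best bound)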", "conditions": "Rok is a gene silencer of Bacillus subtilis; high values mean tight binding; most listed sequences are background and not binding sites; double strand, one strand shown", "units": {"binding signal": "E-score"}, "values": [{"sequence": "CAACTTCA", "binding signal": 0.0498}, {"sequence": "GACGAATA", "binding signal": 0.0978}, {"sequence": "GGTCCCTA", "binding signal": -0.126}, {"sequence": "CTCTTTAA", "binding signal": 0.03}, {"sequence": "AGAGCTTG", "binding signal": -0.178}, {"sequence": "AAGCACCA", "binding signal": -0.21}, {"sequence": "CGCTCCGC", "binding signal": -0.161}, {"sequence": "CATTCCTA", "binding signal": 0.000602}, {"sequence": "ACTTCATA", "binding signal": 0.236}, {"sequence": "CCACCAGC", "binding signal": -0.203}, {"sequence": "AAAGCACC", "binding signal": -0.103}, {"sequence": "CGGCTGGC", "binding signal": -0.257}, {"sequence": "GCTAGCAC", "binding signal": -0.0307}, {"sequence": "CATTTTGC", "binding signal": -0.0411}, {"sequence": "AGCGGTGC", "binding signal": -0.275}, {"sequence": "CAACTATC", "binding signal": 0.156}, {"sequence": "GCTATATA", "binding signal": 0.355}, {"sequence": "AGGGGTGC", "binding signal": -0.343}, {"sequence": "AATTTTCA", "binding signal": 0.109}, {"sequence": "CACATATC", "binding signal": -0.0359}, {"sequence": "CGTAGCGC", "binding signal": -0.128}, {"sequence": "AAAGTAAA", "binding signal": 0.197}, {"sequence": "CATTGATA", "binding signal": 0.26}, {"sequence": "GCCCACCA", "binding signal": -0.364}, {"sequence": "CTTGCCTA", "binding signal": -0.152}, {"sequence": "TAACAGCA", "binding signal": 0.0222}, {"sequence": "GCAACCGC", "binding signal": -0.193}, {"sequence": "AATACACA", "binding signal": 0.173}, {"sequence": "ACCGATTC", "binding signal": 0.072}, {"sequence": "ACTGAACT", "binding signal": 0.0777}, {"sequence": "ACCTGGTC", "binding signal": -0.207}, {"sequence": "ATAATCAC", "binding signal": 0.217}, {"sequence": "TGATCGCA", "binding signal": -0.0559}, {"sequence": "AGGGGCTC", "binding signal": -0.288}, {"sequence": "CATCTGAC", "binding signal": 0.00145}, {"sequence": "ACAAGTTG", "binding signal": 0.046}, {"sequence": "GACCAGGC", "binding signal": -0.104}, {"sequence": "GGTCTAAC", "binding signal": -0.0569}, {"sequence": "AAGTATGT", "binding signal": 0.13}, {"sequence": "CCGGCTCG", "binding signal": -0.334}, {"sequence": "CCGCCTTC", "binding signal": -0.191}, {"sequence": "CGGAGGCC", "binding signal": -0.301}, {"sequence": "CCTCTATC", "binding signal": -0.166}, {"sequence": "TAATCGAA", "binding signal": 0.222}, {"sequence": "GCGCTGAC", "binding signal": -0.215}, {"sequence": "ACGTGGTC", "binding signal": -0.292}, {"sequence": "CATGCCGA", "binding signal": 0.131}, {"sequence": "AACTCTTA", "binding signal": 0.13}, {"sequence": "ACACAGTA", "binding signal": 0.137}, {"sequence": "CACCTTAG", "binding signal": -0.178}, {"sequence": "ATAACACC", "binding signal": 0.253}, {"sequence": "GACATCTA", "binding signal": 0.128}, {"sequence": "AGCGCCTG", "binding signal": -0.294}, {"sequence": "CTTGAGTA", "binding signal": 0.0201}, {"sequence": "GGACGCAC", "binding signal": -0.212}, {"sequence": "TAAACGTA", "binding signal": 0.257}, {"sequence": "ATGACTCC", "binding signal": -0.034}, {"sequence": "ATGCAAGC", "binding signal": -0.0317}, {"sequence": "GACGTAAC", "binding signal": -0.073}, {"sequence": "GTTTCCCA", "binding signal": -0.06}, {"sequence": "CGCCTGTA", "binding signal": 0.000307}, {"sequence": "GCAGTGAC", "binding signal": -0.235}, {"sequence": "ACAAAAAC", "binding signal": 0.124}, {"sequence": "ATCTTATC", "binding signal": 0.143}, {"sequence": "ATTCGTAA", "binding signal": 0.211}, {"sequence": "ACCTAGGT", "binding signal": 0.0131}, {"sequence": "GCGACAGA", "binding signal": -0.0213}, {"sequence": "ATGTGCAG", "binding signal": -0.0615}, {"sequence": "ACTGTGCC", "binding signal": -0.0903}, {"sequence": "ACGAGCAG", "binding signal": -0.19}, {"sequence": "AGGTTCCA", "binding signal": -0.0965}, {"sequence": "ACGAGCGA", "binding signal": -0.172}, {"sequence": "CGGCAAAG", "binding signal": -0.346}, {"sequence": "GCACGCCC", "binding signal": -0.349}, {"sequence": "CTGGCCTC", "binding signal": -0.315}, {"sequence": "GATTGAAC", "binding signal": -0.046}, {"sequence": "AACGAGTG", "binding signal": 0.0432}, {"sequence": "ATATCCCA", "binding signal": 0.184}, {"sequence": "CGCAAGAG", "binding signal": 0.0284}, {"sequence": "TACCTCAA", "binding signal": 0.133}, {"sequence": "CGCTTTGC", "binding signal": -0.256}, {"sequence": "AACATTCT", "binding signal": 0.135}, {"sequence": "AGCCGGAA", "binding signal": -0.0919}, {"sequence": "CATTCCCA", "binding signal": -0.0834}, {"sequence": "CGCAAAAG", "binding signal": -0.0768}, {"sequence": "AAAAACCC", "binding signal": 0.157}, {"sequence": "CTACCATC", "binding signal": 0.421}, {"sequence": "CAACCGCG", "binding signal": -0.0951}, {"sequence": "ATACTTCC", "binding signal": 0.264}, {"sequence": "CAAGCGGG", "binding signal": -0.388}, {"sequence": "AACTCACT", "binding signal": 0.0823}, {"sequence": "ACGTGGAT", "binding signal": -0.0764}, {"sequence": "AGATACTA", "binding signal": 0.316}, {"sequence": "GAGGCTTA", "binding signal": -0.241}, {"sequence": "CGCGAGGA", "binding signal": -0.266}, {"sequence": "GTAGAAGA", "binding signal": 0.304}, {"sequence": "GACGATGA", "binding signal": -0.192}, {"sequence": "CATCATGC", "binding signal": -0.0679}, {"sequence": "CCTTAGGA", "binding signal": 0.047}, {"sequence": "AAACTTTC", "binding signal": 0.181}, {"sequence": "ACACATAA", "binding signal": 0.133}, {"sequence": "CACCCGAA", "binding signal": -0.177}, {"sequence": "GCGGGGAC", "binding signal": -0.343}, {"sequence": "AATCGAGG", "binding signal": 0.182}, {"sequence": "CGTGAGCC", "binding signal": -0.289}, {"sequence": "AGTTCGTC", "binding signal": 0.0996}, {"sequence": "AGCCGTGA", "binding signal": -0.124}, {"sequence": "CACAAGCG", "binding signal": 0.0221}, {"sequence": "AAGTTTCT", "binding signal": 0.261}, {"sequence": "AGAATGAG", "binding signal": 0.0362}, {"sequence": "ACAGTGTG", "binding signal": -0.0809}, {"sequence": "GCAATTAC", "binding signal": 0.13}, {"sequence": "ACTGATCA", "binding signal": 0.0266}, {"sequence": "AATACGAC", "binding signal": 0.0254}, {"sequence": "AACGCCGT", "binding signal": -0.0527}, {"sequence": "ACACATCT", "binding signal": 0.11}, {"sequence": "AGACGCAT", "binding signal": -0.121}, {"sequence": "ATCAGCAA", "binding signal": 0.0758}, {"sequence": "ACTGTGAT", "binding signal": 0.117}, {"sequence": "ACGATAGC", "binding signal": 0.223}, {"sequence": "ATATCGTA", "binding signal": 0.263}, {"sequence": "AATAAGAC", "binding signal": 0.0721}, {"sequence": "GGAGAATA", "binding signal": 0.0969}, {"sequence": "TATTTTCA", "binding signal": 0.154}, {"sequence": "GCTAATCA", "binding signal": -0.0222}, {"sequence": "GTAGTGAA", "binding signal": 0.111}, {"sequence": "CCATAACC", "binding signal": -0.159}, {"sequence": "ATGTGCGG", "binding signal": -0.19}, {"sequence": "GATTAGTA", "binding signal": 0.198}, {"sequence": "CGATAAGA", "binding signal": 0.0724}, {"sequence": "AGAGTCCG", "binding signal": -0.147}, {"sequence": "AGCTGGTG", "binding signal": 0.0512}, {"sequence": "AAGATACC", "binding signal": 0.166}, {"sequence": "AACCGATA", "binding signal": 0.108}, {"sequence": "CCTGTGGA", "binding signal": -0.131}, {"sequence": "AGCTTAGG", "binding signal": -0.00777}, {"sequence": "GGGGGCAA", "binding signal": -0.204}, {"sequence": "CGTTTTTA", "binding signal": 0.114}, {"sequence": "AACTCAAC", "binding signal": -0.0426}, {"sequence": "CTGTGTGC", "binding signal": -0.151}, {"sequence": "ACGTACGA", "binding signal": 0.121}, {"sequence": "GGAGGAAA", "binding signal": -0.0512}, {"sequence": "CGGAAGTC", "binding signal": -0.139}, {"sequence": "TGACGCAA", "binding signal": -0.0984}, {"sequence": "CCCCTCTC", "binding signal": -0.281}, {"sequence": "ACAAGTAT", "binding signal": 0.225}, {"sequence": "ACCACCCG", "binding signal": -0.247}, {"sequence": "CCATGCCC", "binding signal": -0.192}, {"sequence": "CAATATCG", "binding signal": -0.014}, {"sequence": "CGATGGGA", "binding signal": -0.138}, {"sequence": "CCCTGGCA", "binding signal": -0.242}, {"sequence": "AGGACTAG", "binding signal": -0.0267}, {"sequence": "AAAATTAA", "binding signal": 0.31}, {"sequence": "CAGTGAGG", "binding signal": -0.1}, {"sequence": "CGAGAGAA", "binding signal": 0.148}, {"sequence": "AAACTGAT", "binding signal": 0.116}, {"sequence": "CCAAAAGA", "binding signal": -0.182}, {"sequence": "ACACTTGA", "binding signal": 0.122}, {"sequence": "AGGCCACC", "binding signal": -0.16}, {"sequence": "GTCGAGAC", "binding signal": -0.186}, {"sequence": "ACTAGAAA", "binding signal": 0.4}, {"sequence": "CTTCTAGC", "binding signal": 0.138}, {"sequence": "GAAGTTAC", "binding signal": 0.226}, {"sequence": "AGAGACGG", "binding signal": -0.057}, {"sequence": "AAAGAACA", "binding signal": -0.118}, {"sequence": "CAGTCTAA", "binding signal": -0.037}, {"sequence": "AGCCACAA", "binding signal": -0.119}, {"sequence": "ATGACTGA", "binding signal": 0.0364}, {"sequence": "GATTTCCC", "binding signal": -0.109}, {"sequence": "CTACCCCC", "binding signal": -0.094}, {"sequence": "CGGCTAAG", "binding signal": -0.0676}, {"sequence": "ACTGAGAC", "binding signal": -0.114}]}]}
